{"source": "the RNAGym collection of RNA variant scans (doi:10.7554/elife.90254)", "parents": {"B1": {"name": "LINE1-mini (parent)", "chain": "GGCAGAGCUCAACACAGCGUGGCAAAGUGGCUGUGGCUAGACUGCC"}}, "note": "Read counts are not given, so values of variants with three or more changes are uncertain.", "data": [{"variants_of": "B1", "assay": "self-cleavage, relative activity (ratio to wild type); higher = more cleavage; in vitro, sequencing; the parent is a self-cleaving ribozyme", "values": [{"variant": "GCCACAGCUCAACACAGCGGUGCAAAGUGGCUGUGGCUAGACUGCC", "note": "[G2C G5C U20G G21U]", "self-cleavage": 0.01}, {"variant": "GCCAGAGCUCAACACAACGUGGCAAAGUGGCUGUGGCUUGAUUGCC", "note": "[G2C G17A A39U C42U]", "self-cleavage": 0.11}, {"variant": "GCCACUACUAAACACAGCUUGGCAACGUGGCUGUGGCUAGACUGGC", "note": "[G2C G5C A6U G7A C10A G19U A26C C45G]", "self-cleavage": 0.04}, {"variant": "GCCAGAGCUCAACACAACGUGGCAAAGUGGCUGUGGCUAGACUUCC", "note": "[G2C G17A G44U]", "self-cleavage": 0.02}, {"variant": "GCCACAGCGCAAUUCAGCGUGGCAAAGUGGCUGUGGCGAGACUGCC", "note": "[G2C G5C U9G C13U A14U U38G]", "self-cleavage": 0.01}, {"variant": "GCCAGAUCUCAAAACAGCGUGCCAAAGAGGCUGUGGCUAGACUGCC", "note": "[G2C G7U C13A G22C U28A]", "self-cleavage": 0.03}, {"variant": "GCCAGAGCUCAACACAGCGUGACAAAGUGGCUGUGUCUAAUCUGUC", "note": "[G2C G22A G36U G40A A41U C45U]", "self-cleavage": 0.11}, {"variant": "GCCAGAGCUCAACACAUCUUCGCAAAGUGACUAUGGAUAGACUGCC", "note": "[G2C G17U G19U G21C G30A G33A C37A]", "self-cleavage": 0.09}, {"variant": "GCCAGAACUGAACACAGUGUGGCAGAGUGGCUGUGGCUAGACUGCC", "note": "[G2C G7A C10G C18U A25G]", "self-cleavage": 0.01}, {"variant": "GCCAGAGCUCAACACAGCUUGGCAAAGUGGCUGUGGCUAUACUGCC", "note": "[G2C G19U G40U]", "self-cleavage": 0.07}, {"variant": "GCCAGAGCUCAACACAUCGUGGCAAAGUGGCUGUGGCAAGACUGCC", "note": "[G2C G17U U38A]", "self-cleavage": 0.08}, {"variant": "GCCAUAACUCAACACAGCGUGGCAGAGUAUCUGUGGCUAGACUGCA", "note": "[G2C G5U G7A A25G G29A G30U C46A]", "self-cleavage": 0.07}, {"variant": "GCCAGAACUCUACACAGCGUUGCAAAGUGGCUGUGGCUAUACUGCA", "note": "[G2C G7A A11U G21U G40U C46A]", "self-cleavage": 0.01}, {"variant": "GCCACAGCUCUACACAGCGUGGCAAAGUGGCUGUGGCUAGACUGCC", "note": "[G2C G5C A11U]", "self-cleavage": 0.02}, {"variant": "GCCAGAUCUCAUCACAGCGUGGCAACGUGGCUGUGGCUAGACUGCC", "note": "[G2C G7U A12U A26C]", "self-cleavage": 0.38}, {"variant": "GCCACAUCUCAACAAAGCGUGGCAAAGUGGCUGUGGCUAGACUGCC", "note": "[G2C G5C G7U C15A]", "self-cleavage": 0.05}, {"variant": "GCCAUAGCUCAACACAGCGUGGCAAAGUGGCUGUGGCUAGACUCUC", "note": "[G2C G5U G44C C45U]", "self-cleavage": 0.04}, {"variant": "GCCAGAGCUCAACACAGCGUCGCAAAGUGGCUGUGGCUAGAACGCC", "note": "[G2C G21C C42A U43C]", "self-cleavage": 0.06}, {"variant": "GCCAGAACUCAACACAGCGUGUCAAAGUGGCUGUGGCUAGACUCCU", "note": "[G2C G7A G22U G44C C46U]", "self-cleavage": 0.16}, {"variant": "GCCAGACCUCAACACAGAGUGGCAAAGUGGCUGUGGCUAGACUGCU", "note": "[G2C G7C C18A C46U]", "self-cleavage": 0.09}, {"variant": "GCCAGAGCUCAACACAGCGUUGCAAAGUGGCUGUGGCUAGACUGUC", "note": "[G2C G21U C45U]", "self-cleavage": 0.13}, {"variant": "GCCAGAGCUCAACACACCUUGGCAAAGUGGCGGUGGCUAGACUGCC", "note": "[G2C G17C G19U U32G]", "self-cleavage": 0.08}, {"variant": "GCCAGAGCUCAACACAACGUGGCAAACUAGAUGUGGCUAGACUGUC", "note": "[G2C G17A G27C G29A C31A C45U]", "self-cleavage": 0.04}, {"variant": "GCCAGAGCUCAACACAGCGUGGCAAAUUGGCUGUUGCUAGACUGUC", "note": "[G2C G27U G35U C45U]", "self-cleavage": 0.02}, {"variant": "GCCAGACAUCAAAACAGCGUGGCUAAUUGACUGUGGCUAGACUGCC", "note": "[G2C G7C C8A C13A A24U G27U G30A]", "self-cleavage": 0.08}, {"variant": "GCCAGAGCUCAACACAGCGUGUCAAACUGGCUGUGGCUAGAUUGCC", "note": "[G2C G22U G27C C42U]", "self-cleavage": 0.03}, {"variant": "GCCAAAGCUCAACACAGCGUGGCAAAGUGACUGUGGCUAGACUGCC", "note": "[G2C G5A G30A]", "self-cleavage": 0.05}, {"variant": "GCCACAGCUCAACACAGCGUGGUAAAGUGGCUGUGGCUAGACUGCC", "note": "[G2C G5C C23U]", "self-cleavage": 0.05}, {"variant": "GCCAGAACUCAACACAGGGUGGCACAGUGGCUGUGGCUAGACUGCC", "note": "[G2C G7A C18G A25C]", "self-cleavage": 0.08}, {"variant": "GCCAGAGCUCAACACAGCCUGGCAAAGUGGCUGUGGCUAGACUAAC", "note": "[G2C G19C G44A C45A]", "self-cleavage": 0.01}, {"variant": "GCCAGAGCUCAACACAGCGUGGCAAACUGGCCGUGGCUGGACUGCC", "note": "[G2C G27C U32C A39G]", "self-cleavage": 0.05}, {"variant": "GCCACAGCUCAACACAGCUUAGCAAAGUGGCUGUGGCUAGACUGCC", "note": "[G2C G5C G19U G21A]", "self-cleavage": 0.03}, {"variant": "GCCACAGCUCGACACAGCGUGGCAAAGGGGCUGUGGCUAGACUGGC", "note": "[G2C G5C A11G U28G C45G]", "self-cleavage": 0.01}, {"variant": "GCCAGAGCUCAACACAGCGUCGCAAAGUGGCUGUGGCUCGACUGCC", "note": "[G2C G21C A39C]", "self-cleavage": 0.02}, {"variant": "GCCAGAGCUCAACACAGCGUCGCAAAGUGGCUGUUGCUAUACUGCC", "note": "[G2C G21C G35U G40U]", "self-cleavage": 0.06}, {"variant": "GCCAGAGCUCAACACAACAUGGCAAAGUGGCUGUUGCUAGACUGCC", "note": "[G2C G17A G19A G35U]", "self-cleavage": 0.09}, {"variant": "GCCAGAGCUCAACACAGCUUGGCGAAGUGGCUUUGGCUAGACUGCC", "note": "[G2C G19U A24G G33U]", "self-cleavage": 0.01}, {"variant": "GCCAGAACUCAACUCAGCGUGGCAAAGUGGCUGGGGCUAGACUACC", "note": "[G2C G7A A14U U34G G44A]", "self-cleavage": 0.18}, {"variant": "GCCAGAUCUCAACACAGCCUGGCAAAGUGGCUCUGGCCAGACUGCC", "note": "[G2C G7U G19C G33C U38C]", "self-cleavage": 0.04}, {"variant": "GCCAGACCUCACCACAGCGUGGGAAAGUGGCUGUGGCUAGACUGCC", "note": "[G2C G7C A12C C23G]", "self-cleavage": 0.07}, {"variant": "GCCAGAGCUCAACACAUCGUGGCAAACUGGCUGUGGCUAGAGUGCC", "note": "[G2C G17U G27C C42G]", "self-cleavage": 0.1}, {"variant": "GCCAUAGCUCAACUCAGCGUGGCAAAGUGGCUCUGGCUAGACUGCC", "note": "[G2C G5U A14U G33C]", "self-cleavage": 0.01}, {"variant": "GCCAGAGCUCAACACAUCGCGGCAAAGUGGAUGUUGCUAGACUGCU", "note": "[G2C G17U U20C C31A G35U C46U]", "self-cleavage": 0.09}, {"variant": "GCCACAGCUCAACACAUCGUGGCAAAGUGGAUGUGGCUAGACUGCC", "note": "[G2C G5C G17U C31A]", "self-cleavage": 0.01}, {"variant": "GCCAGAGCUCAACACAGCGUGUAAAAGUGGCUGUGGCUAGACAGCC", "note": "[G2C G22U C23A U43A]", "self-cleavage": 0.05}, {"variant": "GCCAGAGCUCAACACAGCGUGCCAAAGUGGCUGUUGCGUGACUGCC", "note": "[G2C G22C G35U U38G A39U]", "self-cleavage": 0.08}, {"variant": "GCCAUAGCUAAACACAGCGUGGCAAAUUGGCUGUGGCUAGACUGCC", "note": "[G2C G5U C10A G27U]", "self-cleavage": 0.01}, {"variant": "GCCAGAGCUCAACACAGCAUGGCAAAGUGGCUCUCGCUCGACUGCC", "note": "[G2C G19A G33C G35C A39C]", "self-cleavage": 0.07}, {"variant": "GCCAGAACUAAACCGAGCGUGGCAAAGUGGCUGUGGCUGGACUGCC", "note": "[G2C G7A C10A A14C C15G A39G]", "self-cleavage": 0.03}, {"variant": "GCCACAGCUCAACACAGCGUGGCGAAGUGGCUGUGGCUAGACUGUC", "note": "[G2C G5C A24G C45U]", "self-cleavage": 0.03}, {"variant": "GCCAGAGCUCAACACAACGUGGCAAGUUGGCUGUGGCUAGACUGCC", "note": "[G2C G17A A26G G27U]", "self-cleavage": 0.06}, {"variant": "GCCAGAGCUCAACACAACGUAGCAAAGUGGCUGUGGCUAGAGUGCC", "note": "[G2C G17A G21A C42G]", "self-cleavage": 0.04}, {"variant": "GCCAUAGCACAACACAGCGUGGCAAAGUGGCUGUGGCUAAACUGCC", "note": "[G2C G5U U9A G40A]", "self-cleavage": 0.01}, {"variant": "GCCAGAGCUCAACACAACGUGGCAAAGUAGCUGUGGCUAAACUGCC", "note": "[G2C G17A G29A G40A]", "self-cleavage": 0.04}, {"variant": "GCCAGAGCUCAACACAGCUUGGCAAAGUGGCUGGGGUUAGACUGCC", "note": "[G2C G19U U34G C37U]", "self-cleavage": 0.07}, {"variant": "GCCAUAGCUCAACACAGCGUGGCAAAGUGGCUGUGGCUUGACUGCA", "note": "[G2C G5U A39U C46A]", "self-cleavage": 0.02}]}]}
